# Test results published in the supplement of paper PMC8728848.
# Some of the results follow.
# B1: Als3-N (Candida albicans) (protein)
# chain: KTITGVFNSFNSLTWSNAATYNYKGPGTPTWNAVLGWSLDGTSASPGDTFTLNMPCVFKFTTSQTSVDLTAHGVKYATCQFQAGEEFMTFSTLTCTVSNTLTPSIKALGTVTLPLAFNVGGTGSSVDLEDSKCFTAGTNTVTFNDGGKKISINVDFERSNVDPKGYLTDSRVIPSLNKVSTLFVAPQCANGYTSGTMGFANTYGDVQIDCSNIHVGITKGLNDWNYPVSSESFSYTKTCSSNGIFITYKNVPAGYRPFVDAYISATDVNSYTLSYANEYTCAGGYWQRAPFTLRWTGYRNSDAGSNGIVIVATTRTVTDSTTAVTTLPFDPNRDKTKTIEILKPIPTTTITTSYVGVTTSYLTKTAPIGETATVIVDIPYHTTTTVTSKWTGTITSTTTHTNPTDSIDTVIVQVP
# Experiments:
# Assay in all cases: glycan array binding signal (z-score within array); higher = stronger binding
# Conditions in all cases: glycan notation: IUPAC condensed, linker removed
# [1] = biological target: Gal(b1-3)GlcNAc(b1-2)Man(a1-3)[Gal(b1-3)GlcNAc(b1-2)Man(a1-6)]Man(b1-4)GlcNAc(b1-4)GlcNAc
# Method in brief: (§1)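 Glycan array data came from 3228 arrays in the Consortium for Functional Glycomics database, and only arrays with an available protein sequence were kept. Glycan names were put into IUPAC-condensed notation, and columns mapping to the same glycan were averaged. The binding signal is a within-array Z-score, averaged across arrays of one protein sequence run at different concentrations or buffers and across linkers. A negative Z-score can be read as non-binding.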
# [2] = biological target: Gal(b1-3)GlcNAc(b1-2)Man(a1-3)[Gal(b1-3)GlcNAc(b1-2)Man(a1-6)]Man(b1-4)GlcNAc(b1-4)[Fuc(a1-6)]GlcNAc
# Method in brief: as §1
# [3] = biological target: Gal(b1-3)GlcNAc(b1-2)Man(a1-3)[GlcNAc(b1-4)][Gal(b1-3)GlcNAc(b1-2)Man(a1-6)]Man(b1-4)GlcNAc(b1-4)GlcNAc
# Method in brief: as §1
# [4] = biological target: Gal(b1-3)GlcNAc(b1-2)[Gal(b1-3)GlcNAc(b1-6)]Man(a1-6)[Gal(b1-3)GlcNAc(b1-2)Man(a1-3)]Man(b1-4)GlcNAc(b1-4)GlcNAc
# Method in brief: as §1
# [5] = biological target: Gal(b1-3)GlcNAc(b1-3)Gal(b1-3)GlcNAc
# Method in brief: as §1
# [6] = biological target: Gal(b1-3)GlcNAc(b1-3)Gal(b1-4)Glc
# Method in brief: as §1
# [7] = biological target: Gal(b1-3)GlcNAc(b1-3)Gal(b1-4)GlcNAc
# Method in brief: as §1
# [8] = biological target: Gal(b1-3)GlcNAc(b1-3)Gal(b1-4)GlcNAc(b1-2)Man(a1-3)[Gal(b1-3)GlcNAc(b1-3)Gal(b1-4)GlcNAc(b1-2)Man(a1-6)]Man(b1-4)GlcNAc(b1-4)GlcNAc
# Method in brief: as §1
# [9] = biological target: Gal(b1-3)GlcNAc(b1-3)Gal(b1-4)GlcNAc(b1-2)[Gal(b1-3)GlcNAc(b1-3)Gal(b1-4)GlcNAc(b1-6)]Man(a1-6)[Gal(b1-3)GlcNAc(b1-3)Gal(b1-4)GlcNAc(b1-2)Man(a1-3)]Man(b1-4)GlcNAc(b1-4)[Fuc(a1-6)]GlcNAc
# Method in brief: as §1
# [10] = biological target: Gal(b1-3)GlcNAc(b1-3)Gal(b1-4)GlcNAc(b1-3)Gal(b1-4)GlcNAc(b1-2)[Gal(b1-3)GlcNAc(b1-3)Gal(b1-4)GlcNAc(b1-3)Gal(b1-4)GlcNAc(b1-6)]Man(a1-6)[Gal(b1-3)GlcNAc(b1-3)Gal(b1-4)GlcNAc(b1-3)Gal(b1-4)GlcNAc(b1-2)Man(a1-3)]Man(b1-4)GlcNAc(b1-4)[Fuc(a1-6)]GlcNAc
# Method in brief: as §1
# [11] = biological target: Gal(b1-3)GlcNAc(b1-3)Gal(b1-4)GlcNAc(b1-6)[Gal(b1-3)GlcNAc(b1-3)]Gal(b1-4)Glc
# Method in brief: as §1
# [12] = biological target: Gal(b1-3)GlcNAc(b1-3)Gal(b1-4)[Fuc(a1-3)]GlcNAc
# Method in brief: as §1
# [13] = biological target: Gal(b1-3)GlcNAc(b1-3)Gal(b1-4)[Fuc(a1-3)]GlcNAc(b1-6)[Gal(b1-3)GlcNAc(b1-3)]Gal(b1-4)Glc
# Method in brief: as §1
# [14] = biological target: Gal(b1-3)GlcNAc(b1-3)GalNAc
# Method in brief: as §1
# [15] = biological target: Gal(b1-3)GlcNAc(b1-6)Gal(b1-4)GlcNAc
# Method in brief: as §1
# [16] = biological target: Gal(b1-3)GlcNAc(b1-6)GalNAc
# Method in brief: as §1
# [17] = biological target: Gal(b1-3)GlcNAc(b1-6)[Gal(b1-3)]GalNAc
# Method in brief: as §1
# Gal(b1-3)GlcNAc6S = biological target: Gal(b1-3)GlcNAc6S
# Method in brief: as §1
# [18] = biological target: Gal(b1-3)[Fuc(a1-4)]GlcNAc
# Method in brief: as §1
# [19] = biological target: Gal(b1-3)[Fuc(a1-4)]GlcNAc(b1-2)Man
# Method in brief: as §1
# [20] = biological target: Gal(b1-3)[Fuc(a1-4)]GlcNAc(b1-2)Man(a1-3)[Gal(b1-3)[Fuc(a1-4)]GlcNAc(b1-2)Man(a1-6)]Man(b1-4)GlcNAc(b1-4)[Fuc(a1-6)]GlcNAc
# Method in brief: as §1
# [21] = biological target: Gal(b1-3)[Fuc(a1-4)]GlcNAc(b1-3)Gal(b1-3)[Fuc(a1-4)]GlcNAc
# Method in brief: as §1
# [22] = biological target: Gal(b1-3)[Fuc(a1-4)]GlcNAc(b1-3)Gal(b1-4)[Fuc(a1-3)]GlcNAc
# Method in brief: as §1
# [23] = biological target: Gal(b1-3)[Fuc(a1-4)]GlcNAc(b1-6)GalNAc
# Method in brief: as §1
# [24] = biological target: Gal(b1-3)[GlcNAc(b1-6)]GalNAc
# Method in brief: as §1
# [25] = biological target: Gal(b1-3)[Neu5Ac(a2-6)]GalNAc
# Method in brief: as §1
# [26] = biological target: Gal(b1-3)[Neu5Ac(a2-6)]GlcNAc(b1-4)Gal(b1-4)Glc
# Method in brief: as §1
# [27] = biological target: Gal(b1-3)[Neu5Ac(b2-6)]GalNAc
# Method in brief: as §1
# Gal(b1-4)Gal = biological target: Gal(b1-4)Gal
# Method in brief: as §1
# [28] = biological target: Gal(b1-4)GalNAc(a1-3)[Fuc(a1-2)]Gal(b1-4)GlcNAc
# Method in brief: as §1
# [29] = biological target: Gal(b1-4)GalNAc(b1-3)[Fuc(a1-2)]Gal(b1-4)GlcNAc
# Method in brief: as §1
# Gal(b1-4)Glc = biological target: Gal(b1-4)Glc
# Method in brief: as §1
# Gal(b1-4)Glc6S = biological target: Gal(b1-4)Glc6S
# Method in brief: as §1
# Gal(b1-4)GlcNAc = biological target: Gal(b1-4)GlcNAc
# Method in brief: as §1
# [30] = biological target: Gal(b1-4)GlcNAc(a1-6)Gal(b1-4)GlcNAc
# Method in brief: as §1
# Gal(b1-4)GlcNAc(b1-2)Man = biological target: Gal(b1-4)GlcNAc(b1-2)Man
# Method in brief: as §1
# [31] = biological target: Gal(b1-4)GlcNAc(b1-2)Man(a1-3)Man(b1-4)GlcNAc(b1-4)GlcNAc
# Method in brief: as §1
# [32] = biological target: Gal(b1-4)GlcNAc(b1-2)Man(a1-3)[Gal(b1-4)GlcNAc(b1-2)Man(a1-6)]Man(b1-4)GlcNAc(b1-4)GlcNAc
# Method in brief: as §1
# [33] = biological target: Gal(b1-4)GlcNAc(b1-2)Man(a1-3)[Gal(b1-4)GlcNAc(b1-2)Man(a1-6)]Man(b1-4)GlcNAc(b1-4)[Fuc(a1-6)]GlcNAc
# Method in brief: as §1
# [34] = biological target: Gal(b1-4)GlcNAc(b1-2)Man(a1-3)[Gal(b1-4)GlcNAc(b1-2)Man(a1-6)][Gal(b1-4)GlcNAc(b1-4)]Man(b1-4)GlcNAc(b1-4)[Fuc(a1-6)]GlcNAc
# Method in brief: as §1
# [35] = biological target: Gal(b1-4)GlcNAc(b1-2)Man(a1-3)[Gal(b1-4)GlcNAc(b1-2)Man(a1-6)][GlcNAc(b1-4)]Man(b1-4)GlcNAc(b1-4)[Fuc(a1-6)]GlcNAc
# Method in brief: as §1
# [36] = biological target: Gal(b1-4)GlcNAc(b1-2)Man(a1-3)[GlcNAc(b1-2)Man(a1-6)]Man(b1-4)GlcNAc(b1-4)GlcNAc
# Method in brief: as §1
# [37] = biological target: Gal(b1-4)GlcNAc(b1-2)Man(a1-3)[GlcNAc(b1-4)][Gal(b1-4)GlcNAc(b1-2)Man(a1-6)]Man(b1-4)GlcNAc(b1-4)GlcNAc
# Method in brief: as §1
# [38] = biological target: Gal(b1-4)GlcNAc(b1-2)Man(a1-3)[Man(a1-6)]Man(b1-4)GlcNAc(b1-4)GlcNAc
# Method in brief: as §1
# [39] = biological target: Gal(b1-4)GlcNAc(b1-2)Man(a1-6)Man(b1-4)GlcNAc(b1-4)GlcNAc
# Method in brief: as §1
binder,measurement,setting,value
B1,glycan array binding signal (z-score),[1],-0.247
same,glycan array binding signal (z-score),[2],-0.326
same,glycan array binding signal (z-score),[3],0.343
same,glycan array binding signal (z-score),[4],-0.232
same,glycan array binding signal (z-score),[5],-0.169
same,glycan array binding signal (z-score),[6],-0.258
same,glycan array binding signal (z-score),[7],-0.307
same,glycan array binding signal (z-score),[8],-0.096
same,glycan array binding signal (z-score),[9],0.427
same,glycan array binding signal (z-score),[10],0.126
same,glycan array binding signal (z-score),[11],-0.381
same,glycan array binding signal (z-score),[12],-0.281
same,glycan array binding signal (z-score),[13],-0.286
same,glycan array binding signal (z-score),[14],-0.233
same,glycan array binding signal (z-score),[15],-0.052
same,glycan array binding signal (z-score),[16],0.261
same,glycan array binding signal (z-score),[17],-0.203
same,glycan array binding signal (z-score),Gal(b1-3)GlcNAc6S,-0.273
same,glycan array binding signal (z-score),[18],-0.201
same,glycan array binding signal (z-score),[19],0.115
same,glycan array binding signal (z-score),[20],-0.406
same,glycan array binding signal (z-score),[21],2.42
same,glycan array binding signal (z-score),[22],-0.251
same,glycan array binding signal (z-score),[23],1.61
same,glycan array binding signal (z-score),[24],-0.144
same,glycan array binding signal (z-score),[25],0.697
same,glycan array binding signal (z-score),[26],-0.253
same,glycan array binding signal (z-score),[27],0.915
same,glycan array binding signal (z-score),Gal(b1-4)Gal,-0.333
same,glycan array binding signal (z-score),[28],-0.267
same,glycan array binding signal (z-score),[29],-0.284
same,glycan array binding signal (z-score),Gal(b1-4)Glc,-0.209
same,glycan array binding signal (z-score),Gal(b1-4)Glc6S,-0.158
same,glycan array binding signal (z-score),Gal(b1-4)GlcNAc,-0.168
same,glycan array binding signal (z-score),[30],-0.28
same,glycan array binding signal (z-score),Gal(b1-4)GlcNAc(b1-2)Man,-0.24
same,glycan array binding signal (z-score),[31],-0.288
same,glycan array binding signal (z-score),[32],0.046
same,glycan array binding signal (z-score),[33],-0.291
same,glycan array binding signal (z-score),[34],-0.252
same,glycan array binding signal (z-score),[35],-0.246
same,glycan array binding signal (z-score),[36],0.335
same,glycan array binding signal (z-score),[37],-0.323
same,glycan array binding signal (z-score),[38],-0.206
same,glycan array binding signal (z-score),[39],-0.205
